Some of the results follow.

B1: PhoQ; a variant is named by its letters at X, in order, P23837 (parent)
chain: MKKLLRLFFPLSLRVRFLLATAAVVLVLSLAYGMVALIGYSVSFDKTTFRLLRGESNLFYTLAKWENNKLHVELPENIDKQSPTMTLIYDENGQLLWAQRDVPWLMKMIQPDWLKSNGFHEIEADVNDTSLLLSGDHSIQQQLQEVREDDDDAEMTHSVAVNVYPATSRMPKLTIVVVDTIPVELKSSYMVWSWFIYVLSANLLLVIPLLWVAAWWSLRPIEALAKEVRELEEHNRELLNPATTRELTSLVRNLNRLLKSERERYDKYRTTLTDLTHSLKTPLXXLQXXLRSLRSEKMSVSDAEPVMLEQISRISQQIGYYLHRASMRGGTLLSRELHPVAPLLDNLTSALNKVYQRKGVNISLDISPEISFVGEQNDFVEVMGNVLDNACKYCLEFVEISARQTDEHLYIVVEDDGPGIPLSKREVIFDRGQRVDTLRPGQGVGLAVAREITEQYEGKIVAGESMLGGARMEVIFGRQHSAPKDE

The variants in this assay derive from B1. In words: enrichment ratio after two sorts for PhoP signalling (ratio (wild type AVST 3.29)); higher = more functional. Particulars: with PhoP (E. coli).
For QPVG, the enrichment ratio was ≤ 0.25.
Take NIHF: the enrichment ratio is ≤ 0.25.
Regarding PVMK, the enrichment ratio is ≤ 0.25.
Take FDPF: the enrichment ratio was ≤ 0.25.
In the case of RCGT, the enrichment ratio is ≤ 0.25.
As for EQVI, the enrichment ratio was ≤ 0.25.
Consider MSSI, for which the enrichment ratio turned out to be 7.12.
ALIK: the enrichment ratio is ≤ 0.25.
TMLC: the enrichment ratio was 13.8.
The same measure for RGRG: ≤ 0.25; for FAAV: ≤ 0.25.
Turning to SCLH, the enrichment ratio worked out at 8.47.
On to GIIK, for which the enrichment ratio was ≤ 0.25.
The same measure for NMPS: ≤ 0.25.
Take HGKR: the enrichment ratio is ≤ 0.25.
The same measure for HWVW: ≤ 0.25; for LHPY: ≤ 0.25; for FCWI: ≤ 0.25.
The same measure for TFFQ: ≤ 0.25; for IHCD: ≤ 0.25; for RNNW: ≤ 0.25.
For THII, the enrichment ratio is ≤ 0.25.
As to MCPS, the enrichment ratio is ≤ 0.25.
In the case of YKTC, the enrichment ratio is ≤ 0.25.
In the case of RIVS it was ≤ 0.25.
The same measure for DLMR: ≤ 0.25; for MLAY: 0.299; for EHWS: ≤ 0.25.
On to YWVY, for which the enrichment ratio was ≤ 0.25.
ANNF: the enrichment ratio came out at 12.9.
YYWM: the enrichment ratio is ≤ 0.25.
In the case of KTMF it was ≤ 0.25.
For TFYE, the enrichment ratio was ≤ 0.25.
In the case of LNKC, the enrichment ratio was ≤ 0.25.
In the case of RCYK, the enrichment ratio was ≤ 0.25.
For the variant RKSV, the enrichment ratio is ≤ 0.25.
Turning to FGAL, the enrichment ratio is ≤ 0.25.
For the variant MQPV, the enrichment ratio is ≤ 0.25.
In the case of RFCS it was ≤ 0.25; in that of APPN, ≤ 0.25.
The same measure for NECA: ≤ 0.25.
HEHW: the enrichment ratio was ≤ 0.25.
Consider PVHA, for which the enrichment ratio was ≤ 0.25.
With WYPQ, the enrichment ratio was ≤ 0.25.
Consider TIAQ, for which the enrichment ratio was 5.43.
In the case of DAIQ it was ≤ 0.25; in that of HPMC, ≤ 0.25.
The same measure for FVGV: ≤ 0.25.
For LLFC, the enrichment ratio is ≤ 0.25.
Take QHMC: the enrichment ratio was ≤ 0.25.
Regarding WAFI, the enrichment ratio is ≤ 0.25.
The same measure for GQGP: ≤ 0.25; for YMHT: ≤ 0.25.
The same measure for AVST: 3.29.
In the case of VNVN it was ≤ 0.25; in that of FQAR, ≤ 0.25.
As to DGDC, the enrichment ratio is ≤ 0.25.
On to RKQP, for which the enrichment ratio was ≤ 0.25.
In the case of GAKL it was ≤ 0.25.
The same measure for VHYI: ≤ 0.25.
In the case of GNCR it was ≤ 0.25; in that of SPAA, ≤ 0.25; in that of EVIN, ≤ 0.25.
As for MHGM, the enrichment ratio worked out at 0.817.
In the case of GHNH, the enrichment ratio is ≤ 0.25.
The same measure for WYFF: ≤ 0.25; for RTMQ: ≤ 0.25.
In the case of ARKT it was ≤ 0.25; in that of KHPL, ≤ 0.25.
KSRM: the enrichment ratio is ≤ 0.25.
Take SWNF: the enrichment ratio is ≤ 0.25.
The same measure for QYHN: ≤ 0.25; for GKIM: 8.59.
In the case of PNYF it was ≤ 0.25; in that of NCFR, ≤ 0.25.
For the variant IMYC, the enrichment ratio is ≤ 0.25.
NRNS: the enrichment ratio is ≤ 0.25.
The same measure for LRTF: ≤ 0.25.
The same measure for YCLE: 1.87.
The same measure for NCFE: ≤ 0.25; for AKIG: 0.984.
Consider MVTG, for which the enrichment ratio was ≤ 0.25.
In the case of YPYT it was ≤ 0.25; in that of AEAA, 12.1.
In the case of FNRC it was ≤ 0.25; in that of RPHA, ≤ 0.25.
Turning to WNCW, the enrichment ratio is ≤ 0.25.
The same measure for GRIV: ≤ 0.25; for LISL: ≤ 0.25; for MNMP: ≤ 0.25.
The same measure for YSSS: ≤ 0.25; for RHMR: ≤ 0.25.
The same measure for AKNV: ≤ 0.25; for FVFA: ≤ 0.25; for IGHN: ≤ 0.25.
Turning to YTND, the enrichment ratio was ≤ 0.25.
For the variant RAKW, the enrichment ratio was ≤ 0.25.
The same measure for DIKW: ≤ 0.25; for RDGV: ≤ 0.25.
In the case of STDA it was ≤ 0.25; in that of NRIY, ≤ 0.25.
In the case of GFCQ, the enrichment ratio is ≤ 0.25.
As to VITH, the enrichment ratio was ≤ 0.25.
As for HMVP, the enrichment ratio is ≤ 0.25.
The same measure for NLAK: ≤ 0.25; for VQSG: ≤ 0.25.
In the case of EGGM it was ≤ 0.25; in that of MSCE, ≤ 0.25.
The same measure for RFCM: ≤ 0.25.
As to NQMF, the enrichment ratio is ≤ 0.25.
KPVK: the enrichment ratio is ≤ 0.25.
As to KDGQ, the enrichment ratio was ≤ 0.25.
With IPSF, the enrichment ratio is ≤ 0.25.
For the variant WAPM, the enrichment ratio is ≤ 0.25.
The same measure for RLMS: ≤ 0.25; for SVQW: ≤ 0.25.
The same measure for SENV: 3.86.
In the case of HSVL it was 3.66.
On to LWCM, for which the enrichment ratio is ≤ 0.25.
In the case of WALY it was ≤ 0.25; in that of MVAT, ≤ 0.25; in that of VINC, ≤ 0.25.
The same measure for PINE: ≤ 0.25; for TFCN: ≤ 0.25; for ASDL: ≤ 0.25.
Turning to MNWV, the enrichment ratio stood at 3.05.
The same measure for HATF: ≤ 0.25; for KDKY: ≤ 0.25; for RSCN: ≤ 0.25.
Regarding VPWF, the enrichment ratio was ≤ 0.25.
Take ANST: the enrichment ratio was found to be 3.81.
As for SSDP, the enrichment ratio is ≤ 0.25.
Turning to DAFK, the enrichment ratio is ≤ 0.25.
The same measure for NHKM: ≤ 0.25.
In the case of RQKD it was ≤ 0.25; in that of ENSL, ≤ 0.25; in that of EMCC, ≤ 0.25.
The same measure for DSGC: ≤ 0.25; for LENS: 0.363; for KFCD: ≤ 0.25.
As to YYNW, the enrichment ratio was ≤ 0.25.
The same measure for YIMG: 0.348; for HKQH: ≤ 0.25; for FARE: ≤ 0.25.
Turning to KGSQ, the enrichment ratio is ≤ 0.25.
In the case of VFDH, the enrichment ratio was ≤ 0.25.
The same measure for APNW: ≤ 0.25; for LGLN: ≤ 0.25; for FAHK: ≤ 0.25.
The same measure for GPVL: ≤ 0.25.
In the case of FDRQ it was ≤ 0.25; in that of YCME, 7.54; in that of YGLA, 12.8.

Values taken from a collection of fitness landscapes (doi:10.1126/science.1257360).
